Experimental data reported in PubChem BioAssay AID330 (DTP/NCI, 2004).
Several values for one entry are separate records, joined by “and”; a condition that tells them apart may be missing. Equal entries are not always repeated. This continues a long series; more values of the same kind are listed elsewhere. Toxic doses and inconclusive results are not listed. The calls were made as follows: active = survival T/C of 150% or more; inactive = T/C below 125% in these data.

Test system: P388 leukemia ip, CD2F1 mice, survival T/C
Assay: NCI In Vivo Anticancer Drug Screen. Data for tumor model P388 Leukemia (intraperitoneal) in CD2F1 (CDF1) mice
Details: endpoint: median survival time, higher = longer survival
Procedure: The antitumor activity of compounds was measured in mice bearing transplantable tumors. Survival or tumor size were measured and the results are expressed as the measurement made in the treated group (T) divided by the measurement made in the vehicle treated control group (C). The tumor model used in this assay is P388 Leukemia (intraperitoneal) in CD2F1 (CDF1) mice

Measured: T/C

ClCC[N+]12CC[N+](CCCl)(CC1)C2
inactive: dose: 3.13 mg/kg/injection, schedule: Q01DX009 (ip), vehicle: water 118 % of control | dose: 6.25 mg/kg/injection, schedule: Q01DX009 (ip), vehicle: saline 100 % of control | dose: 10.0 mg/kg/injection, schedule: Q01DX005 (ip), vehicle: water 90 % of control | dose: 50.0 mg/kg/injection, schedule: Q01DX009 (ip), vehicle: saline 109 % of control | dose: 100.0 mg/kg/injection, schedule: Q01DX009 (ip), vehicle: distilled water + Tween-80 = 99 % of control | dose: 150.0 mg/kg/injection, schedule: Q01DX009 (ip), vehicle: water 114 % of control | dose: 160.0 mg/kg/injection, schedule: Q01DX009 (ip), vehicle: water 86 % of control | dose: 200.0 mg/kg/injection, schedule: Q01DX009 (ip), vehicle: saline 124 % of control | dose: 240.0 mg/kg/injection, schedule: Q01DX005 (oral), vehicle: water 91 % of control | dose: 240.0 mg/kg/injection, schedule: Q01DX009 (oral), vehicle: water 95 % of control
216 % of control and 116 % of control: dose: 100.0 mg/kg/injection, schedule: Q01DX009 (ip), vehicle: saline
185 % of control [middle of 9 runs]: dose: 100.0 mg/kg/injection, schedule: Q01DX009 (ip), vehicle: water
active: dose: 0.78 mg/kg/injection, schedule: Q01DX009 (ip), vehicle: water 150 % of control and 157 % of control | dose: 1.56 mg/kg/injection, schedule: Q01DX009 (ip), vehicle: water 160 % of control and 163 % of control | dose: 3.12 mg/kg/injection, schedule: Q01DX009 (ip), vehicle: water 193 % of control | dose: 50.0 mg/kg/injection, schedule: Q01DX009 (ip), vehicle: distilled water + Tween-80 = 169 % of control | dose: 50.0 mg/kg/injection, schedule: Q01DX009 (ip), vehicle: water 169 % of control [middle of 8 runs] | dose: 60.0 mg/kg/injection, schedule: Q01DX009 (ip), vehicle: water 187 % of control | dose: 66.0 mg/kg/injection, schedule: Q01DX009 (ip), vehicle: water 169 % of control | dose: 100.0 mg/kg/injection, schedule: Q01DX009 (ip), vehicle: saline with Tween-80 = 179 % of control | dose: 106.68 mg/kg/injection, schedule: Q01DX009 (ip), vehicle: clinical formulation 195 % of control | dose: 106.68 mg/kg/injection, schedule: Q01DX009 (ip), vehicle: water 186 % of control | dose: 120.0 mg/kg/injection, schedule: Q01DX005 (ip), vehicle: water 219 % of control | dose: 120.0 mg/kg/injection, schedule: Q01DX009 (ip), vehicle: water 194 % of control and 214 % of control | dose: 200.0 mg/kg/injection, schedule: Q01DX006 (ip), vehicle: water 192 % of control
